Out of some 360,000 compounds screened, about 25,000 (6.9%) were called active. Inconclusive results, whose numbers are uncertain, are shown with a selection of clear calls. Calls follow the shape of the dose curve; as a rule, active = well fitted inhibition curve with a large enough effect; inconclusive = small, poorly fitted or top-dose-only effect; inactive = flat fitted curve, though single readings scatter. Where the call is inconclusive, the potency comes from a doubtful curve fit.
Target: Luciferin 4-monooxygenase (Photinus pyralis) (UniProt P08659)
Experiment: qHTS profiling assay for firefly luciferase inhibitor/activator using purifed enzyme and Km concentrations of substrates (counterscreen for miR-21 project); also: nearly all actives have a fitted effect of over 55% in size
Conditions: purified FLuc, luminescence inhibition; series mostly up to 57.5 µM
Method in brief: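 Biochemical qHTS of compounds, final roughly 60 µM downward over six points, against 10 nM purified firefly luciferase using Km concentrations of substrates (10 uM D-luciferin, 10 uM ATP) in Tris acetate pH 7.5 buffer; luminescence output.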
Potency is read from the fitted curve at half-maximal effect; tags tell the direction and shape of the fitted curve.

UniProt P08659, sequence (P08659 whole entry, looked up): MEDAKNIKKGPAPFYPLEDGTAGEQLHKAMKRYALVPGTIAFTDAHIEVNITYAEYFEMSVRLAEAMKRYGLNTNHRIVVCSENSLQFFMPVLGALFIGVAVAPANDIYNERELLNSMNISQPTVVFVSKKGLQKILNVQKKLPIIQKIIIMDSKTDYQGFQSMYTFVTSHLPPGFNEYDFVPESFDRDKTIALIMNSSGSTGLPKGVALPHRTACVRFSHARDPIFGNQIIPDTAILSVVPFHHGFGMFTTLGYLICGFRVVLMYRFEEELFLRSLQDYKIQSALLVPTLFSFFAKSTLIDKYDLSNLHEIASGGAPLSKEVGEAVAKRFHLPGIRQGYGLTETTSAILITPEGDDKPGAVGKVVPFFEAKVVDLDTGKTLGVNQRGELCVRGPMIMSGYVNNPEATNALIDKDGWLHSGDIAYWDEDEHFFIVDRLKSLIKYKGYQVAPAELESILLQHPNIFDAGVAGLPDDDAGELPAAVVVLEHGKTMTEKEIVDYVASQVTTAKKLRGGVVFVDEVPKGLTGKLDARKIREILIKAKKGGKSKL

SMILES	Potency
OC1CCCN(C(=S)Nc2ccc(SC(F)F)cc2)C1 (stereo not given)	active: 10.7 µM
CCOc1nc(-c2ccccc2)ccc1-c1noc(-c2cccs2)n1	inconclusive: 12 µM [inhibitor, partial curve, poor fit]
Cc1ccc(S(=O)(=O)N(C)c2ccc(OCC(=O)NC3=NCCS3)cc2)cc1	inconclusive: 26.9 µM [inhibitor, partial curve, poor fit]
CCN(CC)Cc1ccccc1CNC(=O)c1cccc(S(=O)(=O)Nc2ccc3c(c2)OCO3)c1	inactive
CCOC(=O)N1CCN(S(=O)(=O)c2ccc(F)c(C(=O)Nc3ccc(C(C)C)cc3)c2)CC1	inconclusive: 37.9 µM [inhibitor, partial curve, poor fit]
O=C(Oc1ccccc1C(=O)N1CCOCC1)c1cccc(Br)c1	inconclusive: 30.1 µM [inhibitor, partial curve, poor fit]
COc1ccccc1CCNC(=O)C(=O)NCC(c1ccco1)S(=O)(=O)c1cccs1 (stereo not given)	inactive
C/C(=N\NC(=O)c1cccc2ccccc12)c1ccccn1	inconclusive: 19 µM [inhibitor, partial curve]
CS/C(=C\[N+](=O)[O-])Nc1ccc(OC(F)(F)F)cc1	inconclusive: 37.9 µM [inhibitor, partial curve, poor fit]
NC(=O)C1CC(=O)N(c2ccc(OCc3ccc(F)cc3)cc2)C1 (stereo not given)	inconclusive: 26.9 µM [inhibitor, partial curve]
COc1n[nH]c(C(=O)NCc2ccccc2)c1[N+](=O)[O-]	inconclusive: 37.9 µM [inhibitor, partial curve, poor fit]
CCCCC(=O)Nc1cccc(-c2cn3ccsc3n2)c1	active: 15.1 µM
O=C(Nc1nc(-c2ccccn2)cs1)c1ccccc1-n1cnnn1	inconclusive: 23.9 µM [inhibitor, partial curve, poor fit]
CCOC(=O)c1ccc2nc(Nc3nc4ccc(F)cc4s3)sc2c1	inconclusive: 10.7 µM [inhibitor, single point]
COc1ccccc1C(=O)NCCC(=O)NC1CCC(C)CC1 (stereo not given)	active: 13.5 µM
COc1ccc(N(C)S(=O)(=O)c2cccc(C(=O)OCC(=O)NCc3ccccc3OC)c2)cc1	inconclusive: 15.1 µM [inhibitor, partial curve, poor fit]
COc1ccccc1/C=N/NC(=O)c1ccc(C)nc1	inconclusive: 26.9 µM [inhibitor, single point]
COc1cccc(/C=C2\SC(=S)N(N3CCOCC3)C2=O)c1OC	active: 16.9 µM
Cc1ccc(S(=O)(=O)Nc2ccc(C(=O)N3CCCC3)cc2)c(C)c1NS(C)(=O)=O	inactive
Cc1ccc(NS(=O)(=O)c2ccc3nc(-c4ccccc4)[nH]c3c2)cc1Cl	inconclusive: 23.9 µM [inhibitor, partial curve]
Clc1ccc(/C=N/Nc2nc(Cl)nc3ccccc23)cc1	active: 13.5 µM
O=C(Nc1cnn(Cc2ccccc2)c1)c1nc2ncccn2n1	inconclusive: 23.9 µM [inhibitor, partial curve, poor fit]
COc1ccc(NCc2ccc(OC)c(OC)c2)cc1	inconclusive: 26.9 µM [inhibitor, single point]
COc1ccc(OC(=O)COc2ccc(Cl)cc2)cc1	inconclusive: 23.9 µM [inhibitor, partial curve, poor fit]

SMILES	Potency
O=S(=O)(Nc1nc2n(n1)C(c1ccc(F)cc1)C=C(c1ccc(Cl)cc1)N2)c1ccccc1 (stereo not given)	inconclusive: 37.9 µM [inhibitor, partial curve, poor fit]
Cc1cccc(OCC2=NS(=O)(=O)c3ccccc3N2)c1	active: 19 µM
N=C(N)SCc1ccc(Cl)cc1Cl	inactive
Cc1nc(N2CCCCC2)c2c(C)c(C(=O)Nc3ccc4c(c3)OCCO4)sc2n1	inconclusive: 19 µM [inhibitor, partial curve]
Cc1cc(NC(=O)Nc2ccc(F)cc2)no1	inconclusive: 19 µM [inhibitor, single point]
CNc1c(NC(=O)c2ccc3c(c2)OCO3)c(=O)oc2ccccc12	inactive
COc1ccc(/C=C(\C#N)C(=O)NCc2ccccc2)cc1O	inconclusive: 21.3 µM [inhibitor, single point]
Nc1nc(N2CCN(c3ccccn3)CC2)nc2ccccc12	active: 10.7 µM
COc1cccc(C(=O)NNC(=O)c2cccc(F)c2)c1	inconclusive: 37.9 µM [inhibitor, partial curve, poor fit]
CCOC(=O)c1nc(NCc2ccccc2)sc1C	inconclusive: 21.3 µM [inhibitor, single point]
Cc1cc(C)n2nc(CNC(=O)c3cccc(N(C)C)c3)nc2n1	inconclusive: 19 µM [inhibitor, partial curve]
O=C(Nc1ccc(C(=O)Oc2ccccc2)c(O)c1)c1ccccc1	inconclusive: 16.9 µM [inhibitor, partial curve]
O=C(N/N=C/c1ccoc1)c1cc(O)cc(O)c1	inconclusive: 19 µM [inhibitor, single point]
CN1CCN(c2ccc(NC(=O)c3cc4ccccc4o3)cc2)CC1	active: 6.01 µM
CC1CCCC(NC(=O)CCC(=O)NCc2ccccc2)C1C (stereo not given)	inactive
O=C(OCCc1cc2ccccc2c(=O)o1)c1ccc2c(c1)OCO2	inconclusive: 6.01 µM [inhibitor, single point]
CN(Cc1ccccc1)c1ccc2cc(S(=O)(=O)N3CCCCC3)ccc2n1	inactive
O=C(COc1ccccc1[N+](=O)[O-])Nc1ccc2c(c1)CCC2	inconclusive: 6.01 µM [inhibitor, full curve]
Cc1nc(Nc2nc3ccccc3o2)nc(C)c1C	active: 8.49 µM
Cc1ccc(C)c(CSc2cn(CC(=O)N3CCCC3)c3ccccc23)c1	inconclusive: 15.1 µM [inhibitor, partial curve, poor fit]
COc1ccc2cc(-c3nc(-c4ccc(N(C)C)cc4)no3)c(=O)oc2c1	inactive
Cc1ncc(CO)c(/C=N/NC(=S)Nc2ccc(Cl)c(Cl)c2)c1O	inconclusive: 37.9 µM [inhibitor, partial curve, poor fit]
COC(=O)c1ccc(C(=O)Nc2ccc(F)cc2)cc1	active: 12 µM
CCOc1cc(-c2cc(-c3ccc(C)o3)nc(N)c2C#N)ccc1O	inactive

SMILES	Potency
CC(C)(C)c1ccc(OCC(=O)Nc2ccncc2)cc1	active: 6.01 µM
O=C(CSc1nc2ccccc2c(=O)[nH]1)Nc1ccc(N2CCOCC2)c(Cl)c1	inconclusive: 15.1 µM [inhibitor, partial curve]
O=C1CC(c2ccccc2)Sc2ccccc2N1 (stereo not given)	inconclusive: 23.9 µM [inhibitor, single point]
COc1ccc(C(=O)NCc2ccccc2)cc1Br	inconclusive: 30.1 µM [inhibitor, partial curve, poor fit]
O=C(/C=C/c1cccs1)Nc1nc(-c2ccccc2)cs1	active: 6.75 µM
CNC(=O)COC(=O)c1cc(-c2ccc(OC)cc2)nc2ccccc12	active: 5.36 µM
O=[N+]([O-])c1nn(-c2ccc3c(c2)OCCO3)n(O)c1=NCc1ccc(F)cc1Cl	inconclusive: 3.01 µM [inhibitor, full curve]
C/C=C/C=C\C(=O)Nc1cccc(C2=NOC3(C2)C[C@H](C(N)=O)N(C(=O)/C=C/C)C3)c1 (stereo not given in full)	inconclusive: 15.1 µM [inhibitor, partial curve]
CC1CCCC(C)N1CCCNC(=O)c1ccc2nc(N3CCOCC3)sc2c1 (stereo not given)	inactive
CCCCCCc1nnc(NC(=O)c2ccco2)s1	inconclusive: 26.9 µM [inhibitor, single point]
N/C(=N\OC(=O)c1ccccc1Cl)c1ccncc1	inconclusive: 9.53 µM [inhibitor, partial curve, poor fit]
Cc1c(C)c2ccc(OCC(=O)N3CCN(C(=O)C4COc5ccccc5O4)CC3)cc2oc1=O (stereo not given)	inconclusive: 21.3 µM [inhibitor, partial curve]
C(=N\Nc1nc(Nc2ccccc2)nc(N2CCOCC2)n1)/c1c[nH]c2ccccc12	active: 4.26 µM
CN(Cc1ccccc1F)C(=O)c1ccc(Oc2ccccc2)cc1	inconclusive: 26.9 µM [inhibitor, single point]
COC(=O)c1c(NC(=O)CSc2nncs2)sc2c1CCCCC2	inconclusive: 21.3 µM [inhibitor, partial curve, poor fit]
CNc1c(-n2cc(C(=O)OC)c(C(=O)OC)c2C(=O)OC)c(=O)n(C)c(=O)n1C	inactive
CCn1nc(C)c(Br)c1-c1nc(-c2cccc(C)c2)no1	inconclusive: 19 µM [inhibitor, partial curve, poor fit]
O=C(NCC1CCCO1)c1ccccc1-c1nc(-c2ccccc2F)no1 (stereo not given)	inconclusive: 26.9 µM [inhibitor, single point]
COC(=O)c1c(C)[nH]c(O)c1C=Nc1ccc(Oc2ccccc2)cc1	inconclusive: 23.9 µM [inhibitor, single point]
CCCCCC(=O)Nc1nc(C)c(-c2csc(Nc3ccc(Cl)cc3)n2)s1	inconclusive: 37.9 µM [inhibitor, partial curve, poor fit]
COc1cccc(/C=C(\CC(=O)O)c2nc3ccccc3s2)c1	inconclusive: 19 µM [inhibitor, partial curve]
Cc1nnc2c3ccccc3nc(N3CCN(c4ccccc4)CC3)n12	inactive

Reference: PubChem BioAssay AID588342 (National Center for Advancing Translational Sciences (NCATS), 2011)
